The values below come from US20250268904A1 (priority 2020, published 2025).

The test system of the test is native kinases in melanoma A375 cells (PIKfyve, PIP4K2C). In words: KiNativ profiling of native kinases in melanoma A375 cells. The conditions noted are these: A375 cells cultured one hour with 1 μM or 0.05 μM WX8. It is filed as cell-based, human. The method, then:
FIG. 2. […] WX8 was profiled quantitatively against all the native kinases in melanoma A375 cells under conditions where protein-protein interactions, differential phosphorylation, and other naturally occurring modifications are preserved (KiNativ, http://www.kinativ.com/technology.htmi). Cells were cultured for one hour with either 1 μM or 0.05 μM WX8. The cells were then treated with biotinylated acyl phosphates of ATP and ADP irreversibly react with conserved lysine residues in the ATP-binding pocket of protein kinases, lipid kinases and heat shock proteins. Proteins were identified by mass spectroscopy. Results were analyzed using a melanoma A375-kinase-ATP probe list of 312 targets. The averages of three independent assays are reported (Student T-test score <0.04).

Take `C1=Nc2ccccc2/C1=C/NNc1nc(Nc2ccccc2)nc(N2CCOCC2)n1` [WX8]: the “kinase binding specificity in cells” value was “bound primarily to the PIKfyve and secondarily to PIP4K2C”.
